Source: PubChem BioAssay AID504832 (National Center for Advancing Translational Sciences (NCATS), 2011)
Out of some 310,000 compounds screened, about 18,000 (5.8%) were called active. The inconclusive results got no clear call from the source; some entries with a clear call stand among them for comparison. Calls follow the shape of the dose curve; as a rule, active = well fitted inhibition curve with a large enough effect; inconclusive = small, poorly fitted or top-dose-only effect, or another doubt; inactive = no such curve, though single readings can be large or run the other way. Potencies of inconclusive entries are left out as doubtful fits.

Assay: Primary qHTS for delayed death inhibitors of the malarial parasite plastid, 48 hour incubation
Settings: P. falciparum luciferase growth in erythrocytes; series mostly up to 28.7 µM; activity change, negative = inhibition: at the top concentration
Summary of the method: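 Erythrocytes infected with P. falciparum carrying an integrated firefly luciferase reporter (2% hematocrit, 0.1% parasitemia final) were exposed to compounds in RPMI 1640 with 0.5% Albumax at 37 C, 5% CO2. Growth inhibition was scored as reduced luminescence.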
% is scaled to controls: 0 for no effect and ±100 for the full control effect; potency is read from the fitted curve at half-maximal effect; tags tell the direction and shape of the fitted curve.

| SMILES | Potency | activity change, negative = inhibition |
| --- | --- | --- |
| c1ccc2c(c1)N1CCN=C1N2CCN1CCCCC1 | inconclusive [inhibitor, single point] |  |
| COC(=O)C1=NN(c2ccc(C)cc2)C2(S1)SC(C(C)=O)=C(C)N2c1ccccc1 (stereo not drawn) | active: 10.4 µM |  |
| O=C(COc1ncnc2ccc(Br)cc12)NCc1ccco1 |  | inactive: 0.399% |
| CCOC(=O)c1c(-c2ccccc2)csc1NC(=O)C(C)NCc1ccco1 (stereo not drawn) | inconclusive [inhibitor, single point] |  |
| CCOc1ccc(NC(=S)N2CCC(N(C)CC3CCCO3)CC2)cc1 (stereo not drawn) |  | inactive: 15% |
| CCOc1c(Cl)cc(/C=N/NC(N)=S)cc1OC |  | inactive: -18.3% |
| N#CCC(=O)Nc1ccc(C(=O)OCC(=O)N2CCCC2=O)cc1 |  | inactive: 46.9% |
| COc1ccc(-n2c(Cc3cccn3C)nnc2SCC(=O)Nc2nccs2)cc1 | inconclusive [inhibitor, partial curve] |  |
| CN1CCN(c2ccc([N+](=O)[O-])cc2C(=O)c2ccc(Cl)cc2)CC1 | inconclusive [inhibitor, partial curve] |  |
| CCC1SC2=NC(C)=C(C(=O)OC)C(c3cccs3)N2C1=O (stereo not drawn) |  | inactive: 5.3% |
| CCN(CC(=O)NCc1ccncc1)S(=O)(=O)c1ccccc1 |  | inactive: 3.61% |
| COc1ccc(C(=O)/C=C/c2ccc(OC)c(Cn3nnc4ccccc43)c2)cc1 | inconclusive [inhibitor, single point] |  |
| Cc1cc(-c2ccccc2)nc(N(C)C)c1S(C)(=O)=O | inconclusive [inhibitor, partial curve] |  |
| Nc1ccccc1C(=O)N/N=C1/C2CN3CCN(C2)CC1(Cc1ccccc1)C3 |  | inactive: 20.3% |
| CCOc1ccccc1NC(=O)C(NCC1(N2CCCCC2)CCCCC1)c1ccccc1 (stereo not drawn) | inconclusive [inhibitor, full curve, poor fit] |  |
| CCN(CC(=O)Nc1ccc(OC)cc1)C(=O)c1ccc2c(=O)n3c(nc2c1)CCC3 | inconclusive [inhibitor, single point] |  |
| O=C(Nc1ccc(Cl)cc1N1CCOCC1)C1CCCCC1 | inconclusive [inhibitor, partial curve, poor fit] |  |
| COC(=O)C1(CCSC)NC(c2ccc(O)cc2)C2C(=O)N(c3ccc4c(c3)OCCO4)C(=O)C21 (stereo not drawn) |  | inactive: 32.7% |
| Cn1c(=O)n(C)c2cc([N+](=O)[O-])c(N3CCN(C(=O)c4ccccc4Cl)CC3)cc21 |  | inactive: -28.6% |
| CC(=O)NCCC(=O)Nc1cc(S(=O)(=O)Nc2ccc(Cl)cc2)ccc1N1CCCC1 | inconclusive [inhibitor, single point] |  |
| O=C(Nc1ccc(Cl)c(S(=O)(=O)N2CCOCC2)c1)c1cc(=O)[nH]c2ccccc12 | inconclusive [inhibitor, single point] |  |
| COc1ccc(C(C)(C)C)cc1NC(=O)CN1C(=O)C(=O)N(Cc2ccco2)C1=O | inconclusive [inhibitor, partial curve, poor fit] |  |
| O=C(COc1ccccc1)N(Cc1nnc(-c2ccccc2Cl)o1)C1CC1 | inconclusive [inhibitor, single point] |  |
| O=C(NCCc1ccccc1)C1CCCN(C(=O)Nc2ccc(F)cc2)C1 (stereo not drawn) |  | inactive: -1.99% |

| SMILES | Potency | activity change, negative = inhibition |
| --- | --- | --- |
| N=c1oc2cc(O)ccc2cc1C(=O)Nc1nc2ccccc2s1 |  | inactive: 118% |
| CCOc1ccnc2c1c(=O)n(Cc1cc(OC)cc(OC)c1)c(=O)n2C | inconclusive [inhibitor, single point] |  |
| Cc1nc2sccn2c(=O)c1CCN1CCC(=C(c2ccccc2)c2ccc(F)cc2)CC1 | active: 14.7 µM |  |
| COc1ccccc1N/N=C(\C#N)C(=N)N1CCOCC1 |  | inactive: 11.9% |
| COc1cccc(C=Nc2cc(C)cc(C)c2)c1O |  | inactive: -13.1% |
| COc1ccc(OC)c(/C=N/NC(=O)c2cnccn2)c1 |  | inactive: -3.14% |
| OC1CCCN(Cc2ccc3ccc4cccc5ccc2c3c45)C1 (stereo not drawn) | inconclusive [inhibitor, single point] |  |
| C=CCc1cccc(/C=N/NC(=O)C(C)Nc2cccc(C)c2)c1O (stereo not drawn) | active: 13.1 µM |  |
| CCN(CC)C(c1ccc(F)cc1)c1nnnn1C1CCCCC1 (stereo not drawn) | inconclusive [inhibitor, partial curve] |  |
| COc1ccc(-n2c(Cc3cccn3C)nnc2SCC(=O)NC2CCCCC2)cc1 | inconclusive [inhibitor, partial curve, poor fit] |  |
| Cc1ccc(C)c(NC(=O)c2cc[n+](C)cc2)c1 |  | inactive: -35.5% |
| O=C(CN1CCN(c2ccccn2)CC1)Nc1ccc2ccccc2c1 |  | inactive: -14.4% |
| Nc1nc(COC(=O)c2ccc3c(c2)OCCO3)nc(Nc2ccccc2)n1 |  | inactive: -14.6% |
| O=C(CN1CCC(O)(c2ccccc2F)CC1)NCCc1c[nH]c2ccccc12 | inconclusive [inhibitor, partial curve, poor fit] |  |
| COc1ccc(C(=O)Nc2nc(-c3cccs3)cs2)cc1 |  | inactive: -7.32% |
| CCOC(=O)c1ccc(NC(=O)c2nc[nH]c2C(=O)NCCCCNC(=O)c2[nH]cnc2C(=O)Nc2ccc(C(=O)OCC)cc2)cc1 | inconclusive [inhibitor, single point] |  |
| Cc1ccc2nc(NC3=NC(CC(=O)O)C(=O)N3)nc(C)c2c1 (stereo not drawn) |  | inactive: 24.6% |
| CCN(CC)S(=O)(=O)c1ccc(Oc2ccccc2)cc1 | inconclusive [inhibitor, single point] |  |
| COc1ccc(/C=C2\COc3ccccc3C2=O)c(OC)c1 | inconclusive [inhibitor, partial curve, poor fit] |  |
| COc1cc(C(=O)OCC(=O)Nc2ccc(SC(F)F)cc2)cc(OC)c1OC |  | inactive: 3.32% |
| COc1ccc2[nH]c3c(c2c1)CCn1c-3nc2ccccc2c1=O |  | inactive: 284% |
| CC1=C(C(=O)OCc2ccccc2)C(c2ccc3ccccc3c2)NC(=O)N1CCCCCC(=O)O (stereo not drawn) | inconclusive [inhibitor, partial curve, poor fit] |  |
| O=C(Nc1nnc(C2CCCCC2)s1)c1cccs1 |  | inactive: 275% |
| COc1ccc(CN(C)C(=O)c2ccc(NC(=O)CC3SC(N4CCCC4)=NC3=O)cc2)c(OC)c1OC (stereo not drawn) | inconclusive [inhibitor, partial curve, poor fit] |  |
